Source: patent EP0708091A1, “Indoloylguanidine derivatives” (SUMITOMO PHARMACEUTICALS COMPANY, LIMITED, priority 1994, dated 1996)
Counter-ions that a name gives are not always drawn. At least one compound was matched to its structure with a doubt left.

What follows are compounds tested against T1, Na⁺/H⁺ exchanger (Rattus norvegicus, UniProt P26431) (assay: Inhibition of Na+/H+ exchanger activity in vitro (change in cell viability during acid loading)). Settings: cells marked *: not measurable due to cytotoxicity; vascular smooth muscle cells isolated from the rat thoracic aorta.
T1 construct: using the vascular smooth muscle cells isolated from the rat thoracic aorta; endogenous in cells; host or cells: primary vascular smooth muscle cells isolated from rat thoracic aorta
T1 sequence (P26431 whole entry): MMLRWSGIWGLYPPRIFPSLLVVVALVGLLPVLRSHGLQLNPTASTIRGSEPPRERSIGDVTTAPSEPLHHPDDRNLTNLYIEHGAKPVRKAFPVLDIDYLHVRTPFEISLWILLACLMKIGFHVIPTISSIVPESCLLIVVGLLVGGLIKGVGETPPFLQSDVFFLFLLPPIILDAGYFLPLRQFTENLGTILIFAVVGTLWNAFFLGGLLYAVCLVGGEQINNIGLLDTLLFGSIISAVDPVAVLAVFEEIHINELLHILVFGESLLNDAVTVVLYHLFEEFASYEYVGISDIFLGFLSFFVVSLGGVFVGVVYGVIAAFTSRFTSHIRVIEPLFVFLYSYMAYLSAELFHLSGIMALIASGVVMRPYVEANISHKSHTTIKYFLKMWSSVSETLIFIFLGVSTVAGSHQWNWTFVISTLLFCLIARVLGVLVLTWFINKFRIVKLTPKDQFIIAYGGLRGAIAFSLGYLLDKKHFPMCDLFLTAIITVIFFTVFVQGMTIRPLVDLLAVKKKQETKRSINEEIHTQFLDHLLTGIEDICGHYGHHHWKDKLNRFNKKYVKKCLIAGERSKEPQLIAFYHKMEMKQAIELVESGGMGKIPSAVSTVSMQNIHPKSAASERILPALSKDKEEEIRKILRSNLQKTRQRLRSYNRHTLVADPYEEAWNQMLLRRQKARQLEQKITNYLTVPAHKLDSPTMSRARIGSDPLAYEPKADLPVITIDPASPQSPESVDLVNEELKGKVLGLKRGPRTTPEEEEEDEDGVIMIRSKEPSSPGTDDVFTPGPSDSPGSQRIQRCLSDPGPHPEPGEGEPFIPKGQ
Format: cell-based
Set-up: key: *: not measurable due to cytotoxicity

Question: How did the “Inhibition of Na^+/H^+ Exchanger MEC” value turn out when Cn1c(C(=O)N=C(N)N)cc2ccc(NC(=O)c3ccccc3)cc21 [Example 106, 6-Benzamido-1-methyl-2-indoloylguanidine hydrochloride] was run?
Answer: *

Same assay, conditions: minimum effective concentration (MEC); change in cell viability during acid loading; vascular smooth muscle cells isolated from the rat thoracic aorta

Question: With Cn1c(C(=O)NC(=N)N)cc2c(C(F)(F)F)cc(OCCN)cc21 [Example 177, 6-(2-Aminoethoxy)-1-methyl-4-trifluoromethyl-2-indoloylguanidine dihydrochloride] as the compound, how does the “Inhibition of Na^+/H^+ Exchanger MEC” value read?
Answer: 0.01 µM

Question: How did the “Inhibition of Na^+/H^+ Exchanger MEC” value turn out when Cn1c(C(=O)N=C(N)N)cc2c(Cl)ccc(Oc3ccccc3N)c21 [Example 188, 7-(2-aminophenoxy)-4-chloro-1-methyl-2-indoloylguanidine hydrochloride] was run?
Answer: 0.03 µM

Question: For Cn1c(C(=O)N=C(N)N)cc2ccc([N+](=O)[O-])cc21 [Example 25, 1-Methyl-6-nitro-2-indoloylguanidine hydrochloride], which “Inhibition of Na^+/H^+ Exchanger MEC” value is on record?
Answer: 0.3 µM

Question: How did the “Inhibition of Na^+/H^+ Exchanger MEC” value turn out when Cn1c(C(=O)N=C(N)N)cc2c(Cl)cc(Oc3ccc(CN)cc3)cc21 [Example 196, 6-[4-(aminomethyl)phenoxy]-4-chloro-1-methyl-2-indoloylguanidine dihydrochloride] was run?
Answer: 0.001 µM

Question: For Cn1c(C(=O)NC(=N)N)cc2c(Cl)ccc(OCCCN)c21 [Example 118, 7-(3-Aminopropoxy)-4-chloro-1-methyl-2-indoloylguanidine dihydrochloride], which “Inhibition of Na^+/H^+ Exchanger MEC” value is on record?
Answer: 0.01 µM

Question: For CC(C)Oc1cccc2c1cc(C(=O)NC(=N)N)n2C [Example 58, 4-Isopropoxy-1-methyl-2-indoloylguanidine hydrochloride], which “Inhibition of Na^+/H^+ Exchanger MEC” value is on record?
Answer: 0.3 µM

Question: How did the “Inhibition of Na^+/H^+ Exchanger MEC” value turn out when COc1ccc2c(c1)cc(C(=O)N=C(N)N)n2C [Example 13, 5-Methoxy-1-methyl-2-indoloylguanidine hydrochloride] was run?
Answer: 1.0 µM

Question: Cn1c(C(=O)NC(=N)N)cc2ccc(OCCO)cc21 [Example 126, 6-(2-Hydroxyethoxy)-1-methyl-2-indoloylguanidine hydrochloride] was tested. Which “Inhibition of Na^+/H^+ Exchanger MEC” value did it give?
Answer: 0.3 µM

Question: How did the “Inhibition of Na^+/H^+ Exchanger MEC” value turn out when Cn1c(C(=O)N=C(N)N)cc2c(Cl)cc(Oc3ccc(N)cc3)cc21 [Example 191, 6-(4-aminophenoxy)-4-chloro-1-methyl-2-indoloylguanidine dihydrochloride] was run?
Answer: 0.01 µM

Question: For Cc1ccc(OCCN2CCCC2)c2c1cc(C(=O)N=C(N)N)n2C [Example 155, 1,4-Dimethyl-7-[2-(N-pyrrolidinyl)ethoxy]-2-indoloylguanidine dihydrochloride], which “Inhibition of Na^+/H^+ Exchanger MEC” value is on record?
Answer: 0.3 µM

Question: Cn1c(C(=O)NC(=N)N)cc2cccc(-c3ccccc3)c21 [Example 48, 1-Methyl-7-phenyl-2-indoloylguanidine hydrochloride] was tested. Which “Inhibition of Na^+/H^+ Exchanger MEC” value did it give?
Answer: 3.0 µM

Question: Cc1ccc2c(c1)cc(C(=O)N=C(N)N)n2C [Example 10, 1,5-Dimethyl-2-indoloylguanidine hydrochloride] was tested. Which “Inhibition of Na^+/H^+ Exchanger MEC” value did it give?
Answer: 10 µM

Question: How did the “Inhibition of Na^+/H^+ Exchanger MEC” value turn out when CCN(CC)CCn1c(C(=O)NC(=N)N)cc2ccccc21 [Example 78, 1-(2-Diethylaminoethyl)-2-indoloylguanidine dihydrochloride] was run?
Answer: >10 µM

Question: How did the “Inhibition of Na^+/H^+ Exchanger MEC” value turn out when Cn1c(C(=O)NC(=N)N)cc2c(Cl)cc(OCCO)cc21 [Example 132, 4-Chloro-6-(2-hydroxyethoxy)-1-methyl-2-indoloylguanidine hydrochloride] was run?
Answer: 0.1 µM

Question: Which “Inhibition of Na^+/H^+ Exchanger MEC” value does the source give for CN(C)Cc1ccc(Oc2cc(Cl)c3cc(C(=O)N=C(N)N)n(C)c3c2)cc1 [Example 198, 4-chloro-6-[4-(dimethylaminomethyl)phenoxy]-1-methyl-2-indoloylguanidine dihydrochloride] here?
Answer: 0.001 µM

Question: How did the “Inhibition of Na^+/H^+ Exchanger MEC” value turn out when CCN(CC)CCCOc1ccc(Cl)c2cc(C(=O)N=C(N)N)n(C)c12 [Example 167, 4-Chloro-7-(3-diethylaminopropoxy)-1-methyl-2-indoloylguanidine dihydrochloride] was run?
Answer: 0.03 µM

Question: With NC(N)=NC(=O)c1c[nH]c2ccccc12 [Example 19, 3-Indoloylguanidine hydrochloride] as the compound, how does the “Inhibition of Na^+/H^+ Exchanger MEC” value read?
Answer: >10 µM

Question: How did the “Inhibition of Na^+/H^+ Exchanger MEC” value turn out when Cn1c(C(=O)N=C(N)N)cc2cccc([N+](=O)[O-])c21 [Example 26, 1-Methyl-7-nitro-2-indoloylguanidine hydrochloride] was run?
Answer: 0.3 µM

Question: How did the “Inhibition of Na^+/H^+ Exchanger MEC” value turn out when Cn1c(C(=O)N=C(N)N)cc2cc(Cl)ccc21 [Example 6, 5-Chloro-1-methyl-2-indoloylguanidine hydrochloride] was run?
Answer: 0.3 µM

Question: With Cn1c(C(=O)NC(=N)N)cc2c(C(F)(F)F)ccc(OCCCN)c21 [Example 172, 7-(3-Aminopropoxy)-1-methyl-4-trifluoromethyl-2-indoloylguanidine dihydrochloride] as the compound, how does the “Inhibition of Na^+/H^+ Exchanger MEC” value read?
Answer: 0.01 µM

Question: How did the “Inhibition of Na^+/H^+ Exchanger MEC” value turn out when Cn1c(C(=O)NC(=N)N)cc2ccc(NCCc3ccccc3)cc21 [Example 139, 1-Methyl-6-(2-phenylethylamino)-2-indoloylguanidine hydrochloride] was run?
Answer: 3.0 µM

Question: With Cn1c(C(=O)N=C(N)N)cc2ccc(C(F)(F)F)cc21 [Example 33, 1-Methyl-6-trifluoromethyl-2-indoloylguanidine hydrochloride] as the compound, how does the “Inhibition of Na^+/H^+ Exchanger MEC” value read?
Answer: 1.0 µM

Question: With N=C(N)NC(=O)c1cc2ccccc2n1CCCc1ccccc1 [Example 40, 1-(3-Phenylpropyl)-2-indoloylguanidine hydrochloride] as the compound, how does the “Inhibition of Na^+/H^+ Exchanger MEC” value read?
Answer: 1.0 µM

Question: COc1cc(OCCCN(C)C)cc2c1cc(C(=O)N=C(N)N)n2C [Example 157, 6-(3-Dimethylaminopropoxy)-4-methoxy-1-methyl-2-indoloylguanidine dihydrochloride] was tested. Which “Inhibition of Na^+/H^+ Exchanger MEC” value did it give?
Answer: 0.3 µM

Question: Cn1c(C(=O)N=C(N)N)cc2c(C(=O)O)cccc21 [Example 62, 4-Carboxy-1-methyl-2-indoloylguanidine hydrochloride] was tested. Which “Inhibition of Na^+/H^+ Exchanger MEC” value did it give?
Answer: >10 µM

Question: How did the “Inhibition of Na^+/H^+ Exchanger MEC” value turn out when CCN(CC)CCCn1c(C(=O)N=C(N)N)cc2c(C(F)(F)F)cccc21 [Example 146, 1-(3-Diethylaminopropyl)-4-trifluoromethyl-2-indoloylguanidine dihydrochloride] was run?
Answer: 10 µM

Question: Which “Inhibition of Na^+/H^+ Exchanger MEC” value does the source give for Cn1c(C(=O)N=C(N)N)cc2c(NC(=O)c3ccccc3)cccc21 [Example 104, 4-Benzamido-1-methyl-2-indoloylguanidine hydrochloride] here?
Answer: >10 µM

Question: How did the “Inhibition of Na^+/H^+ Exchanger MEC” value turn out when CN(C)CCOc1ccc(C(F)(F)F)c2cc(C(=O)N=C(N)N)n(C)c12 [Example 160, 7-(2-Dimethylaminoethoxy)-1-methyl-4-trifluoromethyl-2-indoloylguanidine dihydrochloride] was run?
Answer: 0.1 µM

Question: For CN(C)CCCn1c(C(=O)NC(=N)N)cc2c(Cl)cccc21 [Example 143, 4-Chloro-1-(3-dimethylaminopropyl)-2-indoloylguanidine dihydrochloride], which “Inhibition of Na^+/H^+ Exchanger MEC” value is on record?
Answer: 0.3 µM
